Among all 48,000 compounds or so, about 550 (1.1%) were called active. Inconclusive results (about 4%) are left out. Cut-off read from the data, not from the text of the source: active = potency below about 15 µM; inconclusive = mostly about 16 µM to 33 µM; inactive = weaker than that. Some of the results follow.
target: Lysosomal acid glucosylceramidase (Homo sapiens) (UniProt P04062); experiment: Glucocerebrosidase; details: purified enzyme, resorufin glucoside fluorescence (screen aimed at inhibitors), 20 min;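 note: the screen sought inhibitors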
UniProt P04062, sequence (P04062 whole entry, looked up): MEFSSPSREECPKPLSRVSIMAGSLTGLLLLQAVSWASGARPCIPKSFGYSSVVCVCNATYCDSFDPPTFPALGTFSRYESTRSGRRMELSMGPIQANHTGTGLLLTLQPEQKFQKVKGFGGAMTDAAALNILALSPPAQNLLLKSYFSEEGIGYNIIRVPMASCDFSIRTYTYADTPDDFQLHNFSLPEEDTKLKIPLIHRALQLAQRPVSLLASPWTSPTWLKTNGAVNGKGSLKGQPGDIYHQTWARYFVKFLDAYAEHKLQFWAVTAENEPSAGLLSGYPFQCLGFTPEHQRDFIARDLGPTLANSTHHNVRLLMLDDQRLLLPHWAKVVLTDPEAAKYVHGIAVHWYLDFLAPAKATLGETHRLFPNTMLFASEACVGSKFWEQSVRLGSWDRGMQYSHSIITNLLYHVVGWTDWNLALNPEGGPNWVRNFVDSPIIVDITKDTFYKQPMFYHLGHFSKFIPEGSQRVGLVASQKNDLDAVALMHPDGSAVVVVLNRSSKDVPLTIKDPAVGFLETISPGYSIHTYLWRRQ
Summary of the method: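 Compounds titrated against 0.2 nM normal enzyme, 30 uM resorufin beta-D-glucopyranoside substrate, citrate/phosphate buffer with taurocholate and tween-20, pH 5.9. Reaction ran 20 min at room temperature; fluorescence (Ex 548/Em 600) gave AC50.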
Potency is the fitted concentration of half-maximal effect.

Potency, inactive:
O=C(Nc1ccc(Cl)cc1)NC1(C(=O)NCCCN2CCOCC2)CCCCC1 > 76.9 µM
c1ccc(-c2noc(-c3cccnc3)n2)nc1 > 76.9 µM
CCn1c(=O)c(C(=O)Nc2cccnc2)c(O)c2ccccc21 > 76.9 µM
COc1ccc(-c2noc(CCC(=O)NCc3cccnc3)n2)cc1 > 76.9 µM
O=C(O)C(CCCCN1C(=O)C2C3C=CC(C3)C2C1=O)N1C(=O)C2C3C=CC(C3)C2C1=O (centres undefined) > 76.9 µM
CC(OC(=O)c1cccs1)C(=O)NCc1cccs1 (centres undefined) > 76.9 µM
O=P1(O)C=C(c2ccccc2)NC(c2ccccc2)=C1 > 76.9 µM
CN(C)S(=O)(=O)c1ccc(C(=O)NCc2ccccc2)cc1 > 76.9 µM
CCOC(=O)C1CCCN(C(=O)Cc2c(F)cccc2Cl)C1 (centres undefined) > 76.9 µM
COCCCN(C(C)=O)c1nc(-c2ccccc2)cs1 > 76.9 µM
Cc1nc2cccc(C(=O)NCc3ccccc3)c2o1 > 76.9 µM
Cc1ccc(-c2nc(CN(C)C)cc(CN(C)C)c2O)cc1 > 76.9 µM
CC(C)(C)Nc1nc(C(N)=O)nc(N2CCOCC2)n1 > 76.9 µM
CC1Cc2cc(/C(O)=C3/C(=O)C(=O)N(CCN4CCOCC4)C3c3cccc(O)c3)ccc2O1 (centres undefined) > 76.9 µM
Cc1c(/C(O)=C2\C(=O)C(=O)N(CCCN(C)C)C2c2ccncc2)cnn1-c1ccccc1 (centres undefined) > 76.9 µM
O=C(CNC(=O)c1cccs1)OCC(=O)c1cccs1 > 76.9 µM
Cc1ccc(NC(=O)Cn2c(=O)n(Cc3ccco3)c(=N)c3c4c(sc32)COC(C)(C)C4)cc1 > 76.9 µM
O=c1[nH]c(SCc2n[nH]c(=S)n2-c2ccccc2)nc2ccccc12 > 76.9 µM
Cc1onc(-c2ccccc2)c1C(=O)Nc1sc2c(c1C(N)=O)CCC2 > 76.9 µM
O=C(NCc1ccccn1)C1CCN(S(=O)(=O)N2CCCC2)CC1 > 76.9 µM
CCOC(=O)N1CCC(NC(=O)C2CCN(S(=O)(=O)c3cccs3)CC2)CC1 > 76.9 µM
Cc1ccc(C)c(-n2c(SCC(=O)NCC3CCCO3)nnc2-c2ccoc2C)c1 (centres undefined) > 76.9 µM
O=C(CCn1nnc2ccccc21)N1CCN(c2ccccc2)CC1 > 76.9 µM
COc1ccc(CCN2C(=O)CC(NCc3ccc4c(c3)OCO4)C2=O)cc1OC (centres undefined) > 76.9 µM
CCC(CC)C(=O)NCCc1cc2c(OC)ccc(OC)c2[nH]c1=O > 76.9 µM
O=C(NC1CCCCCC1)C1CCN(S(=O)(=O)c2ccccc2)CC1 > 76.9 µM
Cc1cc(NC(=O)c2cc(-c3cccnc3)nc3c(C)c(C)ccc23)no1 > 76.9 µM
Cc1nc2oc3c(NCC4CCCO4)ncnc3c2c2c1COC(C)(C)C2 (centres undefined) > 76.9 µM
CSc1nsc(SCC(=O)N2CCN(c3ccccc3)CC2)n1 > 76.9 µM
COc1cccc2cc(C(=O)C3=C(O)C(=O)N(Cc4ccco4)C3c3cccnc3)oc12 (centres undefined) > 76.9 µM
COc1cccc(C2=CC(c3ccc(C)cc3)n3ncnc3N2)c1 (centres undefined) > 76.9 µM
Cn1nnc2cc(NC(=O)N3CCN(c4ccccn4)CC3)ccc21 > 76.9 µM
Cc1cccc(OCc2n[nH]c(=S)o2)c1 > 76.9 µM
CCOC(=O)C1=C(C)Nc2ncnn2C1c1ccccc1F (centres undefined) > 76.9 µM
Cc1nc(CSc2nnc3scc(-c4ccc(Cl)cc4)n23)cs1 > 76.9 µM
Cc1ccc2c(COC(=O)C3=COCCO3)cc(=O)oc2c1 > 76.9 µM
C=CCN1C(=O)CN=C1Nc1cccc(C)c1 > 76.9 µM
O=P(c1ccccc1)(c1ccccc1)C(c1ccco1)N1CCOCC1 (centres undefined) > 76.9 µM
COc1cc(C#CC#CCN2CCCCC2)ccc1O > 76.9 µM
O=C(c1ccco1)N1CCN(C(c2ccccc2F)c2nnnn2CC2CCCO2)CC1 (centres undefined) > 76.9 µM
Cc1ccc(S(=O)(=O)CCc2nnc(NC(=O)c3cnccn3)s2)cc1 > 76.9 µM
CC(=O)c1c(C)[nH]c(C(=O)CSc2nnc(C3CCCCC3)n2N)c1C > 76.9 µM
O=C(c1scc2c1CCCC2)N1CCCCC1 > 76.9 µM
O=C1OC(NC(=O)c2ccccc2)C(N2CCOCC2)=C1Cl (centres undefined) > 76.9 µM
O=C(Cn1cc(C(=O)c2cccs2)c2ccccc21)NCC1CCCO1 (centres undefined) > 76.9 µM
Cc1ccc(CS(=O)(=O)CCC(=O)N2CCOCC2)cc1 > 76.9 µM
O=C(Nc1ccc(F)cc1Cl)c1ccc2c(=O)n3c(nc2c1)CCCCC3 > 76.9 µM
COC(=O)CC1=C(C(=O)OC)C(c2cccs2)C(C#N)=C(N)O1 (centres undefined) > 76.9 µM
CCCNC(=O)c1ccccc1NC(=O)CN(c1ccccc1OCC)S(C)(=O)=O > 76.9 µM
COc1ccc(OC)c(C2N(c3ccc(Cl)cc3)C(=O)C3CCCN32)c1 (centres undefined) > 76.9 µM
Cc1ccc(NCc2nnc(SCc3ccc(C#N)cc3)n2Cc2ccco2)c(C)c1 > 76.9 µM
COc1ccc(-c2cc(C(F)(F)F)nc(SCC(=O)N3CC(C)OC(C)C3)n2)cc1OC (centres undefined) > 76.9 µM
CCOC(=O)C1C(=O)NCC2CCCC21 (centres undefined) > 76.9 µM
CCOc1cccc2c1OC1(C)CC2NC(=O)N1c1cccc(Cl)c1 (centres undefined) > 76.9 µM
CC(NC(=O)c1ccncc1)C(c1cccs1)N1CCOCC1 (centres undefined) > 76.9 µM
CCOC(=O)c1sc2nc3n(c(=O)c2c1C)CCC(C)CC3 (centres undefined) > 76.9 µM
NC(=O)C1CCN(C(=O)N2c3ccccc3Sc3ccccc32)CC1 > 76.9 µM
O=C(NCc1nnc(SCC(=O)N2CCN(c3ccccc3)CC2)o1)c1ccco1 > 76.9 µM
CCOC(=O)N1CCC(NC(=O)c2cc(C)c3c(C)nn(-c4ccccc4)c3n2)CC1 > 76.9 µM
Cc1ccc2cccc(OCC(=O)NCc3ccco3)c2n1 > 76.9 µM
CC1Cc2ccccc2N1C(=O)C1CCN(S(=O)(=O)Cc2ccccc2)CC1 (centres undefined) > 76.9 µM
CCOC(=O)N1CCC(NC(=O)CSc2cc(=O)n(C)c3ccccc23)CC1 > 76.9 µM
COC(=O)c1cccc(N2C(=O)c3cccnc3C2=O)c1 > 76.9 µM
COc1ccc(-c2noc(CSc3nnc(CCc4ccccc4)n3-c3ccccc3)n2)cc1OC > 76.9 µM
O=[n+]1c2c(n([O-])c3cc(F)ccc31)CCCC2 > 76.9 µM
CCOc1ccc2nc(NC(=O)C3CCCN(S(=O)(=O)c4cccs4)C3)sc2c1 (centres undefined) > 76.9 µM
c1coc(CN(Cc2cccs2)Cc2nnnn2C2CCCCC2)c1 > 76.9 µM
Cc1cc(C)c2[nH]c(=O)c(CN(Cc3ccc4c(c3)OCO4)Cc3nnnn3C3CCCC3)cc2c1 > 76.9 µM
COc1cc(Cl)c(S(=O)(=O)N2CCOCC2)cc1Cl > 76.9 µM
Cc1cc(C)c(-c2cc(C(=O)Nc3c(C)n(C)n(-c4ccccc4)c3=O)[nH]n2)c(O)c1 > 76.9 µM
Cc1cc(C)cc(-n2nnnc2SCC(=O)Nc2cccc(NC(=O)c3ccco3)c2)c1 > 76.9 µM
O=C(CSc1nc2[nH]ncc2c(=O)n1-c1ccccc1)N1CCCc2ccccc21 > 76.9 µM
NC(=O)c1ccc(-c2ccc(Br)cc2)o1 > 76.9 µM
CCOC(=O)CSCc1c(C#N)c2ccccc2n1C > 76.9 µM
O=C(c1ccncc1)c1ccc(N2CCN(C3CC(=O)N(Cc4ccccc4)C3=O)CC2)cc1 (centres undefined) > 76.9 µM
COC(=O)CC1NCCNC1=O (centres undefined) > 76.9 µM
CCS(=O)(=O)N1CCC(C(=O)NCCCOC)CC1 > 76.9 µM
O=C(CSc1nnnn1-c1ccccc1)NC(=O)Nc1ccc2c(c1)OCCO2 > 76.9 µM
C/C=C(\C)CN1CCc2cc(OC)c(OC)cc2C1 > 76.9 µM
COc1ccc(C(O)c2coc3ccc(O)c(CN(C)C)c23)cc1 (centres undefined) > 76.9 µM
COc1ccc(N2CCN(C(c3ccccc3)c3nnnn3Cc3ccc(F)cc3)CC2)cc1 (centres undefined) > 76.9 µM
CCN(CC)S(=O)(=O)c1ccc(NC(=O)CN(c2cccc(F)c2)S(C)(=O)=O)cc1 > 76.9 µM
CCC(c1nc2ccccc2c(=O)n1-c1cccnc1)N1C(=O)c2ccccc2C1=O (centres undefined) > 76.9 µM
CCn1c(C)nc2cc(C(=O)n3cc(C(=O)c4cc(F)ccc4O)cn3)ccc21 > 76.9 µM
CCCN1CC=C2C(C#N)=C(N)C(C#N)(C#N)C(c3cccc(OC)c3OC)C2C1 (centres undefined)
Cc1cc(C)nc(N2CCCC(C(=O)Nc3ccc4c(c3)OCCO4)C2)n1 (centres undefined) > 76.9 µM
COc1ccc(NC(=O)c2cccnc2N2CCCCC2)cc1 > 76.9 µM
CCc1nc(C)cn1S(=O)(=O)c1cc(OC)c(C)cc1C > 76.9 µM
CCn1c(SCC(=O)OC(C)C)nnc1-c1cccc(Cl)c1 > 76.9 µM

Source: PubChem BioAssay AID360 (National Center for Advancing Translational Sciences (NCATS), 2006)
